From article PMC10641524
Results are given in words; binding and its absence hold for the method and conditions named. Binding seen in cells or lysates may run through a third protein. Some results given as binding are weak or reduced against the parent protein; the word gives no strength. For some assays here: Sequences can lack the tags named with a protein.

By UniProt entry, the sequences of proteins in these tests, tags left out.
UniProt Q9NP72: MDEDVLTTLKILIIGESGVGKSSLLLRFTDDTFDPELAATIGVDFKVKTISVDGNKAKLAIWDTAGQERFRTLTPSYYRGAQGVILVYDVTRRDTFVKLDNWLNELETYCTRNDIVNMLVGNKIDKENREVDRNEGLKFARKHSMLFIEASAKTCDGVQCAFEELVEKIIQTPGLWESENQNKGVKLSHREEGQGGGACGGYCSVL
UniProt P32019: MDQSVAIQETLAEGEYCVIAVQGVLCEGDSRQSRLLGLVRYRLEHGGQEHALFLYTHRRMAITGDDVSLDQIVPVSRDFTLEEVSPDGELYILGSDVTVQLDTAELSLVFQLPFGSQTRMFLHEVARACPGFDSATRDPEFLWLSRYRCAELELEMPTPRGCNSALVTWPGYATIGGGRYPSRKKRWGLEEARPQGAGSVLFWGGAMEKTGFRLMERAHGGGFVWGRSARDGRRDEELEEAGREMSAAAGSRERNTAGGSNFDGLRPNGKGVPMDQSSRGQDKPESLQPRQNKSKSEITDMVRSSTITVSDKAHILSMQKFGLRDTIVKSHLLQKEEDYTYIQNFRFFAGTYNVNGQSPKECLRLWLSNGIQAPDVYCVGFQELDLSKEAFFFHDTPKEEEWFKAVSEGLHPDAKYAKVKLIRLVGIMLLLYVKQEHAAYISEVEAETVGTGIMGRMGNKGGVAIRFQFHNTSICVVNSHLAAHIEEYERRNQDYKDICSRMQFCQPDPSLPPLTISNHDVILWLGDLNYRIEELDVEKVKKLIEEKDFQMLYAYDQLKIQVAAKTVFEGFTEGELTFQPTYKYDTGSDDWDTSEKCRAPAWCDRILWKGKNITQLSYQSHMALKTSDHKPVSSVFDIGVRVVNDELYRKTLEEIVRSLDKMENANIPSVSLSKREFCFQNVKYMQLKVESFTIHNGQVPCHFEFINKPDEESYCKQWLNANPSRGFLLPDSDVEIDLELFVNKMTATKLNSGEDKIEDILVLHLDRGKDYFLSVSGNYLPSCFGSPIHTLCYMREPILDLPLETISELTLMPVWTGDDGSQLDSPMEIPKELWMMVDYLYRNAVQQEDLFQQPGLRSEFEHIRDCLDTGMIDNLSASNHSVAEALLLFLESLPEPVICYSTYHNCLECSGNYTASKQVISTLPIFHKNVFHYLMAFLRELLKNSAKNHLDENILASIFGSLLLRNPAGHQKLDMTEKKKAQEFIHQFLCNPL

What was measured:
HA-RAB18 [1] = target: HA-RAB18 (UniProt Q9NP72); test: co-IP; anti-HA immunoprecipitation (protein G Dynabeads) from lysates of transfected WT HeLa cells (for TMCO4-EGFP also TRAPPC9-null cells), 24 h post-transfection; 150 mM NaCl, 0.5% Triton X-100, 10 mM Tris pH 7.4; immunoblot for HA and GFP or mCherry
HA-RAB18 [2] = target: HA-RAB18 (UniProt Q9NP72); test: co-IP; anti-HA immunoprecipitation (protein G Dynabeads) from lysates of transfected RAB3GAP1-null HeLa cells; 150 mM NaCl, 0.5% Triton X-100, 10 mM Tris pH 7.4; immunoblot for HA and GFP
HA-RAB18 [3] = target: HA-RAB18 (UniProt Q9NP72); test: co-IP; anti-HA immunoprecipitation (protein G Dynabeads) from lysates of transfected WT HeLa cells (for TMCO4-EGFP also TRAPPC9-null cells), 24 h post-transfection; 150 mM NaCl, 0.5% Triton X-100, 10 mM Tris pH 7.4; immunoblot for HA and GFP or mCherry; remark: listed apart in the source

In the case of “mCherry-INPP5B (from UniProt P32019 1-993)”, the binding (HA-RAB18 [1]) is reported as “binds”.

B1: TMCO4-EGFP (protein, UniProt Q5TGY1 1-634)
chain: MAMWNRPCQRLPQQPLVAEPTAEGEPHLPTGRELTEANRFAYAALCGISLSQLFPEPEHSSFCTEFMAGLVQWLELSEAVLPTMTAFASGLGGEGADVFVQILLKDPILKDDPTVITQDLLSFSLKDGHYDARARVLVCHMTSLLQVPLEELDVLEEMFLESLKEIKEEESEMAEASRKKKENRRKWKRYLLIGLATVGGGTVIGVTGGLAAPLVAAGAATIIGSAGAAALGSAAGIAIMTSLFGAAGAGLTGYKMKKRVGAIEEFTFLPLTEGRQLHITIAVTGWLASGKYRTFSAPWAALAHSREQYCLAWEAKYLMELGNALETILSGLANMVAQEALKYTVLSGIVAALTWPASLLSVANVIDNPWGVCLHRSAEVGKHLAHILLSRQQGRRPVTLIGFSLGARVIYFCLQEMAQEKDCQGIIEDVILLGAPVEGEAKHWEPFRKVVSGRIINGYCRGDWLLSFVYRTSSVQLRVAGLQPVLLQDRRVENVDLTSVVSGHLDYAKQMDAILKAVGIRTKPGWDEKGLLLAPGCLPSEEPRQAAAAASSGETPHQVGQTQGPISGDTSKLAMSTDPSQAQVPVGLDQSEGASLPAAASPERPPICSHGMDPNPLGCPDCACKTQGPSTGLD
B1 was tested, and the binding (HA-RAB18 [2]) was “no binding (condition: in RAB3GAP1-null cells)” and the binding (HA-RAB18 [3]) was “binds”.

B2: mEmerald-SEC22A (protein, UniProt Q96IW7 1-307)
chain: MSMILSASVIRVRDGLPLSASTDYEQSTGMQECRKYFKMLSRKLAQLPDRCTLKTGHYNINFISSLGVSYMMLCTENYPNVLAFSFLDELQKEFITTYNMMKTNTAVRPYCFIEFDNFIQRTKQRYNNPRSLSTKINLSDMQTEIKLRPPYQISMCELGSANGVTSAFSVDCKGAGKISSAHQRLEPATLSGIVGFILSLLCGALNLIRGFHAIESLLQSDGDDFNYIIAFFLGTAACLYQCYLLVYYTGWRNVKSFLTFGLICLCNMYLYELRNLWQLFFHVTVGAFVTLQIWLRQAQGKAPDYDV
In the case of B2, the binding (HA-RAB18 [2]) is reported as “no binding (condition: in RAB3GAP1-null cells)” and the binding (HA-RAB18 [3]) is reported as “binds”.
